# Hit rate of the full screen: of about 310,000 compounds, about 2,200 (0.71%) showed an effect of 50% or more. Effects have a minus sign here. Some of the results follow.
# Biological target: human ether-à-go-go-related gene (hERG) potassium channel (human, UniProt Q12809)
# Assay: primary screen, population patch clamp on CHO cells stably expressing hERG
# Chain of human ether-à-go-go-related gene (hERG) potassium channel (Q12809 whole entry, looked up): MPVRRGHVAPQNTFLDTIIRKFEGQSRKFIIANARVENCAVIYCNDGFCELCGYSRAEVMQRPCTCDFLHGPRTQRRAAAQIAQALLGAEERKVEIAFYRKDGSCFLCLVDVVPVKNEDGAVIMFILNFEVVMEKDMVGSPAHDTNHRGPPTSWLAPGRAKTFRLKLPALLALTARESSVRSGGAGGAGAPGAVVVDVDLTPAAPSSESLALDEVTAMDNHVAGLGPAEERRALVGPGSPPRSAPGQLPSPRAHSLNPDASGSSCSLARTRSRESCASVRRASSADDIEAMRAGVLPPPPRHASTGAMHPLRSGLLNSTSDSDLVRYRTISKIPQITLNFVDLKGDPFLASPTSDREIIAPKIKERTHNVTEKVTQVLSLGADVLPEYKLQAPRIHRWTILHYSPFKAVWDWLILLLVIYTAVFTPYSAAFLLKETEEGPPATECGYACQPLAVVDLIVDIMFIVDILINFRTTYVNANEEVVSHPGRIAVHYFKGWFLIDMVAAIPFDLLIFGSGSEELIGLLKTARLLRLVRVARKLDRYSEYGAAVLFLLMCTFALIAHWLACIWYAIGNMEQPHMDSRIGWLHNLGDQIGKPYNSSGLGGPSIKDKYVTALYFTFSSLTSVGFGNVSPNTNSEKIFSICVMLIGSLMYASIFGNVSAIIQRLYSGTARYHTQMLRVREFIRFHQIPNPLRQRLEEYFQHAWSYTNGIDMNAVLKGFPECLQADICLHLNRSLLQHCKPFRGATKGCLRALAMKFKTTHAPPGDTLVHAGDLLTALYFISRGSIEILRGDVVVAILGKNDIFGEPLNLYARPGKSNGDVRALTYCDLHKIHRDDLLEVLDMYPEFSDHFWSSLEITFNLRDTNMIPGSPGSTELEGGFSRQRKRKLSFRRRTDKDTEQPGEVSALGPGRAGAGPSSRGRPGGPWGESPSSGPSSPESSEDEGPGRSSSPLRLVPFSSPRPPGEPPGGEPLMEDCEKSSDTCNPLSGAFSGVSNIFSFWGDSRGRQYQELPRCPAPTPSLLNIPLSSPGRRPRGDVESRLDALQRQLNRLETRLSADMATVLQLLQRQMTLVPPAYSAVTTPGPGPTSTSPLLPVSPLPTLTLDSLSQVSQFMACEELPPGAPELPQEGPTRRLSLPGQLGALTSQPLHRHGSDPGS
row,SMILES,"hERG current change (%, negative = inhibition) at 1uM"
1,COc1ccc(NC(=O)Cn2c(=O)oc3cc(S(=O)(=O)N4CCCC4)ccc32)cc1,11.2%
2,COc1cc(/C=C2/C(=O)NN(c3cccc(C)c3)C2=O)cc([N+](=O)[O-])c1O,8.24%
3,COc1ccccc1OCC(=O)[O-].[Na+],6.84%
4,CC(=O)Nc1ccccc1OCC(=O)NCCc1ccc(Cl)cc1Cl,6.34%
5,CCCSc1nc2c(=O)[nH][nH]c(=O)c2n1Cc1ccccc1,1.37%
6,O=C(Nc1ccc2[nH]c3c(c2c1)CCCC3)c1ccco1,3.95%
7,COC(=O)c1ccccc1NC(=O)CSc1ccc(C)cc1,6.14%
8,CCOc1ccc(OCC)c(NC(=O)CSc2nnc(C3CC3)n2CC)c1,3.67%
9,CC(=O)NC12CC3CC(C1)CC(C(=O)OCC(=O)Nc1c(F)cccc1F)(C3)C2,5.05%
10,Cc1nc2nc(C)c(NS(=O)(=O)c3ccc(Cl)cc3)c(=O)n2[nH]1,12.5%
11,CCCCn1c(N)c(N(CC(C)C)C(=O)C2CCN(c3ncnc4sc(C)c(C)c34)CC2)c(=O)[nH]c1=O,-1.89%
12,CC(NC(=O)Cc1ccc(-c2ccccc2)cc1)c1ccccc1 (stereo not drawn),-1.32%
13,CC1=C[C@@H](C)[C@@H](c2ccccc2)OC1=O,7.9%
14,COc1cc2c(cc1OC)CN(CCC(C)c1ccc(Cl)cc1)CC2.O=C(O)/C=C\C(=O)O (stereo not drawn),-50.5%
15,CC(C)CN(CC(C)C)C(=O)C12CCC(C)(C(=O)O1)C2(C)C (stereo not drawn),7.37%
16,O=C(Nc1ccc(N2CCOCC2)nc1)c1c(F)cccc1F,16.6%
17,CCCCCSc1cc(OC)c(CCNC)cc1OC.O=C(O)/C=C\C(=O)O,2.11%
18,COc1cccc2cc(C(C)N(CCCN3CCOCC3)C(=S)Nc3cccc(C)c3)oc12 (stereo not drawn),10.9%
19,CN(CCO)c1ccc(-c2n[nH]c(=O)c3ccccc23)cc1[N+](=O)[O-],2.5%
20,COc1ccc(N2C(=O)C3CCCN3C2c2cccc(F)c2)cc1Cl (stereo not drawn),0.382%
21,N#C/C(=C\c1cc2ccccc2nc1N1CCOCC1)C(=O)Nc1ccc(N2CCOCC2)cc1,5.8%
22,Cc1cc2ccccc2c(=O)n1CC(=O)N1CCN(c2cccc(Cl)c2)CC1,1.89%
23,C/C(NC(=O)c1cccs1)=C1\C(=O)C[C@@H]2[C@H]1C2(C)C,7.2%
24,CC(C)OCCCNC(=O)c1c(N)n(CC2CCCO2)c2nc3ccccc3nc12 (stereo not drawn),6.34%

# From paper PMC4336329 (PLoS ONE, 2015)
